Test results taken from publication PMC7819943, “Rice protein-binding microarrays: a tool to detect cis-acting elements near promoter regions in rice”.
Some of the results follow.

Molecular target: T1, OsWOX13 (Oryza sativa, UniProt Q5QMM3 1-267)
T1 sequence: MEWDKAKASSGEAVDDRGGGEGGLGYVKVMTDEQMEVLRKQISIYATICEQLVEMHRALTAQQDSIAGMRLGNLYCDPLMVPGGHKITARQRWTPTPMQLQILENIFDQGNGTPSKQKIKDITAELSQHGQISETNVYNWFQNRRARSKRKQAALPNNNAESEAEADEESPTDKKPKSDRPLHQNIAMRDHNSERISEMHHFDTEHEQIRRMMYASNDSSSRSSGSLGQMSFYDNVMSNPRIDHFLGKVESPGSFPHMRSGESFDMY
Test: protein-binding microarray (RPBM); PBS, 2% BSA, 51.3 ng/ul salmon testes DNA, 50 uM zinc acetate, 200 nM TF, 25 C, 1 h; high values mean tight binding
Details: protein: recombinant; tags: N-terminal polyhistidine and DsRed monomer fusion (pET32a); label: CyDye5-dUTP incorporated in the synthesized complementary strand; 3' TTTTT single-stranded linker to array surface; dsDNA, one strand shown
How it was run: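 Using Ni–NTA, transcription factors fused N-terminally to polyhistidine and DsRed were purified after expression in E. coli BL21-CodonPlus. These were incubated at 200 nM with a blocked, double-stranded custom Agilent array for 1 h at 25 °C in a buffer containing 50 µM zinc acetate, and the array was washed. The binding signal is per-feature fluorescence intensity (arbitrary units) on an Axon 4000B scanner.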

Sequence	binding signal
AGTCAATATTGGAATATAATTTAGAAGTAACTGAAATTCGCGGAGTCACCTAGTGCAG	6820 fluorescence intensity (a.u.)
GGGTAACAATCAACGCTCATCGCTCATCTATTTCTTTGTACGGAGTCACCTAGTGCAG	6070 fluorescence intensity (a.u.)
GATCAAATCAATCTACAGGAAGATATCGGGTTTGTCGTTCCGGAGTCACCTAGTGCAG	8430 fluorescence intensity (a.u.)
ACCATCTGTAATTATAAATTTATAATATGCTCATTTGACACGGAGTCACCTAGTGCAG	29100 fluorescence intensity (a.u.)
CGTACAATATTAATTAAAGTGTTTAAGAAACAGAGACTAGCGGAGTCACCTAGTGCAG	3740 fluorescence intensity (a.u.)
ACCAAATGACATGACTCACTTAGATCCTAATAGGACATCCCGGAGTCACCTAGTGCAG	6450 fluorescence intensity (a.u.)
AATACAGGATTAAGAGACATAATGGAGTAAATCTTGTGCACGGAGTCACCTAGTGCAG	3200 fluorescence intensity (a.u.)
GCTAACTTATCAGTAACACAATATATTGATAAGTTCGAGGCGGAGTCACCTAGTGCAG	13700 fluorescence intensity (a.u.)
CGTTAAATAAACTGAGGAGAGCTTGGATTTCTCATCTCCACGGAGTCACCTAGTGCAG	7290 fluorescence intensity (a.u.)
ATCATGAACTAATTAGGTTTAAAAGATTCGTCTCGCGAATCGGAGTCACCTAGTGCAG	9480 fluorescence intensity (a.u.)
CGATCAATTTCCTGGCCCAAACTAGTTTGATGTGTGGTTTCGGAGTCACCTAGTGCAG	3370 fluorescence intensity (a.u.)
TTACAATTACAGATACTAATGTATGGGGTAATAGAAAGGTCGGAGTCACCTAGTGCAG	8770 fluorescence intensity (a.u.)
TGTTTTGATTTGCCTCTCAAAATAATACGTCCGCATCTCGCGGAGTCACCTAGTGCAG	13500 fluorescence intensity (a.u.)
AGAGTAATAATTGTACTCTATTATCAATTTGTTATTGTGTCGGAGTCACCTAGTGCAG	8010 fluorescence intensity (a.u.)
ACCGCAATCAATCTCAGGAGCATTTTCTGGCCTAAATAAACGGAGTCACCTAGTGCAG	4830 fluorescence intensity (a.u.)
TCTGATTACTAATTGTGGCTGCATATATAGGGTAGGGAGGCGGAGTCACCTAGTGCAG	44700 fluorescence intensity (a.u.)
ATTATTTATGTTTAAATTATTATGGTGTTAAGGTAGACACCGGAGTCACCTAGTGCAG	6060 fluorescence intensity (a.u.)
CCGTAAATTTGAGAAATTTCGCGCGAATTTACACAAACGCCGGAGTCACCTAGTGCAG	16700 fluorescence intensity (a.u.)
TTTAATGGCCAAAATGATAGAGGAATAATTGCAAACCTTGCGGAGTCACCTAGTGCAG	19800 fluorescence intensity (a.u.)
CGGAAATCTAAGGTGATTATTGCTTAATTAGCGGAATCTGCGGAGTCACCTAGTGCAG	32100 fluorescence intensity (a.u.)
CCTAAATTTAAGAGGGACGATCGAGGCTAAGCTGTTGCACCGGAGTCACCTAGTGCAG	6360 fluorescence intensity (a.u.)

Sequence	binding signal
AATGTGAAGATTGAATCGCACATTTGTTAGATCGTTGCCTCGGAGTCACCTAGTGCAG	12200 fluorescence intensity (a.u.)
TCCTTAATTCGCAAATATACGTGAGATTGCAGTAAAGAAGCGGAGTCACCTAGTGCAG	4820 fluorescence intensity (a.u.)
CTTAATACATGTGATTTTGAGGAAAAGTTAGTAAGAGCTCCGGAGTCACCTAGTGCAG	4420 fluorescence intensity (a.u.)
TTTTACATGATTGGATGACAAAGCCTATTTCGTTTTGTTGCGGAGTCACCTAGTGCAG	53100 fluorescence intensity (a.u.)
ACCAAATATTAATTATGTAGTATATATTTATAGGTAACTACGGAGTCACCTAGTGCAG	4060 fluorescence intensity (a.u.)
TAAGAAGGTGATTAGAGGATAATCCACGGGAGGTGCTTGCCGGAGTCACCTAGTGCAG	6070 fluorescence intensity (a.u.)
GCTTAATTAAGCTATCTAATGGTTGAAAACAACACGTCGTCGGAGTCACCTAGTGCAG	38400 fluorescence intensity (a.u.)
GCAAATAATTACACGACGCTCGAGCATCCAATGCAGTGCTCGGAGTCACCTAGTGCAG	7120 fluorescence intensity (a.u.)
GCTTAATTAACACCCCAGGCGGCCGCAGACCAAACCGACCCGGAGTCACCTAGTGCAG	35400 fluorescence intensity (a.u.)
GAATAACATAATGATGAGGCCCTGTGCGTTCCCTAAGCTTCGGAGTCACCTAGTGCAG	3630 fluorescence intensity (a.u.)
CTGGTGTCTAATTTGTTGCAACAAAATTATTACTACTTCACGGAGTCACCTAGTGCAG	9730 fluorescence intensity (a.u.)
CTTTAAATTGTGACATTGTCTTTGCTAGTGGGAAACTGGGCGGAGTCACCTAGTGCAG	17800 fluorescence intensity (a.u.)
GCCCCATACATTTCTGATTGCTCCCATACGATTTGGGCGGCGGAGTCACCTAGTGCAG	6160 fluorescence intensity (a.u.)
CGGAATTTCTATTATTTCTAAATTGTATACCGGCATGGACCGGAGTCACCTAGTGCAG	6210 fluorescence intensity (a.u.)
TTCCTCTAATTAACGTGTCAGCGGTCTAGGTCACGTAAGACGGAGTCACCTAGTGCAG	9900 fluorescence intensity (a.u.)
GTGGTTGATTTGACCTTTTACATTGTACAGATGGTATTGGCGGAGTCACCTAGTGCAG	18100 fluorescence intensity (a.u.)
CCAATTTAATAAAATAAATTGATACTATAAATATTACAATCGGAGTCACCTAGTGCAG	9090 fluorescence intensity (a.u.)
GTGCTCAATTTTAATTGGTTAAAATTATTTCTAGAGCTCTCGGAGTCACCTAGTGCAG	18600 fluorescence intensity (a.u.)
TACATGTTATTGATGGTAATGTACACTCGTTGAGTCTTCTCGGAGTCACCTAGTGCAG	10100 fluorescence intensity (a.u.)
TAATTAATTTTCACTAATTATTACTGCGTTCTTCATATGCCGGAGTCACCTAGTGCAG	52100 fluorescence intensity (a.u.)
AATGATTACAAGAGGCCATAATGTCAATGTTCTTTGCAGGCGGAGTCACCTAGTGCAG	30500 fluorescence intensity (a.u.)
